# Laboratory results published in PubChem BioAssay AID624260 (Broad Institute, 2012).
# Out of some 44,000 compounds screened, about 30 (0.07%) were called active. The inconclusive results got no clear call from the source; some entries with a clear call stand among them for comparison. Cut-off read from the data, not from the text of the source: active = inhibition above about 54% (passing the limit was not always enough); inconclusive = no clear call, values can overlap the other calls.
# Biological target: Histone-lysine N-methyltransferase NSD2 (Homo sapiens) (UniProt O96028)
# Test: NSD2 histone methyltransferase activity blockers – biochemical, plate reader, single point, primary screen (AID 624260);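 note: inhibitors reduce the monomethyl H3K36 fluorescence signal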
# Conditions: NSD2-SET H3K36me1 DELFIA fluorescence, at 12.5 µM, hits give high values
# Sequence of UniProt O96028 (O96028 whole entry, looked up): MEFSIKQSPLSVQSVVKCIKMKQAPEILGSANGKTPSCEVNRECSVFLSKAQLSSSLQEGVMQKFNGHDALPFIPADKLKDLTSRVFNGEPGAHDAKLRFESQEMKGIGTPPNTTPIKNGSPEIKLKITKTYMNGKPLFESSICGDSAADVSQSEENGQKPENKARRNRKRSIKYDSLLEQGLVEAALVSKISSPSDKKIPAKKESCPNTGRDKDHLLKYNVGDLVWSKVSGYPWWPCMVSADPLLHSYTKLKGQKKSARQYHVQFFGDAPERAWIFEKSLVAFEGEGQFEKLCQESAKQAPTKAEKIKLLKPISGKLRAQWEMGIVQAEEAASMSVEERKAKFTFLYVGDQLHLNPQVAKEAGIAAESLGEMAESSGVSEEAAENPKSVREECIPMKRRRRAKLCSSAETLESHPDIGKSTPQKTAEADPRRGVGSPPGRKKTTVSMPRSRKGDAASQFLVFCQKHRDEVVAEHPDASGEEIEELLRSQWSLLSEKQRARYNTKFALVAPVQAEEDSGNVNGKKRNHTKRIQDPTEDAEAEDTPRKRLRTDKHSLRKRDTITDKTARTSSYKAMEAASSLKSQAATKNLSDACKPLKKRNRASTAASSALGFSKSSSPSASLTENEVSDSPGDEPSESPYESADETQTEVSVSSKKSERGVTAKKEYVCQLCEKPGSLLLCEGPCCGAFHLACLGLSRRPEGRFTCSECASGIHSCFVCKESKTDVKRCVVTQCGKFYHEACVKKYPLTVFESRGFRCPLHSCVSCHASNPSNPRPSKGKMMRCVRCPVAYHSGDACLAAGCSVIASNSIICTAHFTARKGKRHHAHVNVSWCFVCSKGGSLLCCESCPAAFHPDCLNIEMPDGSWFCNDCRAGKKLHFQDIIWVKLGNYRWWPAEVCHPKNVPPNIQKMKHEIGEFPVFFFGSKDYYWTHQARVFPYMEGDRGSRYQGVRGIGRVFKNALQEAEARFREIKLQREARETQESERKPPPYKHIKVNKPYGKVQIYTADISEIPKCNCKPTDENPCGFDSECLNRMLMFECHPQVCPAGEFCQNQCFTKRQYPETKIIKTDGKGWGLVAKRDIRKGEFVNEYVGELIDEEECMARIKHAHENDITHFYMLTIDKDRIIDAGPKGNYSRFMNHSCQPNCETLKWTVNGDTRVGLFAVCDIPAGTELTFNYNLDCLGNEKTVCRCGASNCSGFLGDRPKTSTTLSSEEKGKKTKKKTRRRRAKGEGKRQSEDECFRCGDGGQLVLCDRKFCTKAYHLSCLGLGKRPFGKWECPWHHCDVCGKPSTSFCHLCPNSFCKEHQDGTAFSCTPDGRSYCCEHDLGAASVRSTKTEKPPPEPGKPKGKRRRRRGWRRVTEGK
row,Compound,inhibition
1,O=C(Nc1ccc2c(c1)[C@@H]1C[C@@H](CC(=O)N3CCCCC3)O[C@@H](CO)[C@@H]1O2)C1CCC1,inactive: 1.86%
2,C/C=C/c1cnc2c(c1)C(=O)N([C@@H](C)CO)C[C@@H](C)[C@@H](CN(C)S(=O)(=O)c1ccc(F)cc1)O2,inconclusive: 179%
3,C[C@@H]1CCCCO[C@@H](CN(C)C(=O)CCCN(C)C)[C@@H](C)CN([C@H](C)CO)C(=O)c2cc(NC(=O)CCCN(C)C)ccc2O1,inconclusive: 111%
4,CC(C)NC(=O)N(C)C[C@@H]1Oc2ncc(C3=CCCCC3)cc2C(=O)N([C@H](C)CO)C[C@@H]1C,inconclusive: 69.7%
5,Cc1cccc(Nc2nnc(-c3ccc(C)c(S(=O)(=O)NCCO)c3)c3ccccc23)c1,inactive: -2.59%
6,C[C@H](CO)N1C[C@H](C)[C@@H](CN(C)C(=O)NC2CCCCC2)Oc2ccc(N(C)C)cc2C1=O,inconclusive: 162%
7,CC(=O)N(C)C[C@@H]1Oc2cc(C#CC(C)C)ccc2S(=O)(=O)N([C@H](C)CO)C[C@@H]1C,inconclusive: 123%
8,COc1ccc(S(=O)(=O)Nc2ccc3c(c2)CC(=O)N([C@H](C)CO)C[C@@H](C)[C@@H](CN(C)C(=O)Nc2ccc4c(c2)OCO4)O3)cc1,inconclusive: 52.7%
9,Cc1ccc(-c2cnc3c(c2)C(=O)N([C@H](C)CO)C[C@@H](C)[C@@H](CN(C)Cc2ccccc2F)O3)cc1,inconclusive: 124%
10,C[C@H](CO)N1C[C@H](C)[C@H](CN(C)C(=O)Nc2ccc(C(F)(F)F)cc2)Oc2c(NS(=O)(=O)c3cn(C)cn3)cccc2C1=O,inactive: -1.04%
11,CC(C)NC(=O)N(C)C[C@H]1OCCCC[C@@H](C)Oc2ccc(N(C)C)cc2C(=O)N([C@@H](C)CO)C[C@@H]1C,inconclusive: 164%
12,COc1cc(C2c3c(cc(OC)c(O)c3OC)CC(CO)C2COC2OC(CO)C(O)C(O)C2O)cc(OC)c1O (configuration not stated),active: 75.8%
13,O=C(C[C@H]1C[C@@H]2c3cc(NC(=O)C4CCC4)ccc3O[C@@H]2[C@@H](CO)O1)NCCc1ccccc1,inconclusive: 177%
14,CC(C)C12CC1C(C)(O[C@@H]1O[C@H](CO)[C@@H](O)[C@H](O)[C@H]1O)CC2=O (some centres not stated),inactive: 15.3%
15,C[C@@H]1CCCCO[C@H](CN(C)C(=O)C2CCCCC2)[C@@H](C)CN([C@@H](C)CO)C(=O)c2cc(NC(=O)Nc3ccccc3)ccc2O1,inconclusive: 80.4%
16,COc1cc(O)c(OC)c2c1C(=O)CC(c1ccccc1)O2 (configuration not stated),inactive: 25.8%
17,C[C@@H]1CCCCO[C@H](CN(C)C)[C@@H](C)CN([C@H](C)CO)C(=O)c2cc(NC(=O)Nc3ccc4c(c3)OCO4)ccc2O1,inconclusive: 121%
